“And” between values parts separate entries of the source, which are not always exact repeats. Equal values may be shown once. In all, about 420,000 compounds went through this assay and about 64,000 (15%) were called active. Inconclusive results, whose numbers are uncertain, are shown with a selection of clear calls. The call rests on the fitted dose curve; in most records, active means well fitted inhibition curve with a large enough effect; inconclusive means small, poorly fitted or top-dose-only effect; inactive means flat fitted curve, though single readings scatter. Potencies of inconclusive entries are doubtful fits and often do not repeat.
experiment: qHTS for Inhibitors of human tyrosyl-DNA phosphodiesterase 1 (TDP1): qHTS in cells in absence of CPT; conditions: DT40 Tdp1-/- hTDP1 cells, no CPT, ATP luminescence, 48 h; activity change, negative = growth inhibition: at 46.2 µM (top of the series) unless noted; further: nearly all actives have a fitted effect of over 55% in size
Procedure, shortened: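 No-CPT arm: Tdp1-/-;hTDP1 DT40 cells (400/well) plus compounds, incubated ≥48 hr at 37 °C. Readout CellTiter-Glo luminescence.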
On the % scale 0 is the no-effect control and ±100 the full control effect; potency means the concentration at half of the fitted maximal effect; tags describe the fitted curve by direction and shape.

SMILES | Potency | activity change, negative = growth inhibition
Cn1ccc2c(-c3ccc(C(=O)O)cc3)cc3c(c21)C1CCC3C1 (configuration not stated) | inactive | –
Cc1ccc(N=C2S/C(=C/c3cccc(OCC(=O)O)c3)C(=O)N2C)cc1C | inactive | –
Cc1nn(C)c(C)c1C1C(C#N)=C(N)Oc2n[nH]c(C)c21 (configuration not stated) | inactive | –
O=C(NCc1cc(C(F)(F)F)cc(C(F)(F)F)c1)C1CC(c2c(Cl)cccc2Cl)=NO1 (configuration not stated) | inconclusive: 29.1 µM [inhibitor, single point] | –
COc1ccccc1-c1cnc(C(O)c2ccc(CN3CCCC3)cc2)[nH]1 (configuration not stated) | inactive | –
O=C(Nc1ccccc1C(=O)N1CCCC1)c1cccc(S(=O)(=O)N2CCCCC2)c1 | inconclusive: 16.4 µM [inhibitor, partial curve] | –
O=S(=O)(Nc1nc2ccccc2nc1Nc1ccc2c(c1)OCO2)c1ccc(F)cc1 | active: 13 µM | –
COc1ccc(N2CCN(CCNC(=O)c3ccc4c(c3)[nH]c(=S)n3c5ccccc5nc43)CC2)cc1 | active: 2.06 µM | –
O=C(CSc1c2c(nc3ccc(Cl)cc13)CCCC2)N1CCN(C(=O)c2ccco2)CC1 | active: 20.6 µM | –
C[C@H](NC(=O)C1CCN(S(=O)(=O)c2ccccc2)CC1)C(=O)NCc1ccc(Cl)cc1Cl | inconclusive: 23.1 µM [inhibitor, partial curve, poor fit] | –
COc1ccc(N2CCN(C(=O)CSc3nc4c(c(=O)n(C)c(=O)n4C)n3C(C)C)CC2)cc1 | inconclusive: 22.4 µM [inhibitor, single point] | –
CC1(C(=O)Nc2ccccc2)Cc2c(-c3cccc(C(N)=O)c3)ccnc2O1 (configuration not stated) | inactive | –
CCOC1=C2CN(S(=O)(=O)c3ccc(C)cc3)C(c3ccccc3)CC2N(S(=O)(=O)c2ccc(C)cc2)C(c2ccc(Br)cc2)C1 (configuration not stated) | inconclusive: 5.8 µM [inhibitor, partial curve] | –
O=C(NCc1cccnc1)c1ccc(CS(=O)(=O)c2ccc(Cl)cc2)o1 | inconclusive: 23.1 µM [inhibitor, partial curve] | –
COc1ccccc1N1CCN(C(=O)C2CCCCN2S(=O)(=O)c2ccc(C)cc2)CC1 (configuration not stated) | inconclusive: 20.6 µM [inhibitor, single point] | –
COc1ccc2nc(SCC(=O)O)nc(C)c2c1 | inactive | –
Cc1c(CNC2CCCCCC2)c(C(=O)O)c(C)n1Cc1c(F)cccc1Cl | inconclusive: 25.9 µM [inhibitor, single point] | –
CCN(CC)S(=O)(=O)c1ccc(NC(=O)Cc2cccs2)cc1 | inconclusive: 29.1 µM [inhibitor, single point] | –
CC(=O)c1c(O)cc(C)n(-c2ccc(F)cc2)c1=O | inactive | –
COc1cccc(C(=O)Nc2ccc(NC(=O)Cc3ccccc3)cc2)c1 | inconclusive: 23.1 µM [inhibitor, partial curve, poor fit] | –
Cn1c(=S)[nH]c2scc(-c3cccs3)c2c1=O | inconclusive: 0.651 µM [inhibitor, full curve, poor fit] | –

SMILES | Potency | activity change, negative = growth inhibition
COc1ccc(-c2cc(=O)c3ccccc3o2)cc1 | inconclusive: 20.6 µM [inhibitor, single point] and inconclusive: 7.31 µM [inhibitor, partial curve] | –
O=C(CSc1ccc([N+](=O)[O-])cc1)Nc1cccc(S(=O)(=O)Nc2ccccc2F)c1 | inconclusive: 29.1 µM [inhibitor, single point] | –
COc1ccc(S(=O)(=O)N2CCCCCC2)cc1NC(=O)CCNC(=O)c1ccccc1Cl | inactive | –
CCCCN(CCCC)Cc1cc(=O)oc2cc(OC)ccc12 | inconclusive: 23.1 µM [inhibitor, single point] | –
CN1C[C@@H]2[C@@H]3C(=O)N(Cc4ccccc4)C(=O)[C@@H]3[C@](Cc3ccccc3)(C1=O)N2C(=O)c1ccc(Br)cc1 | – | inconclusive: -31.7% [inhibitor]
Cc1nc(-c2cc(-c3nc(-c4cc(C(F)(F)F)cc(C(F)(F)F)c4)no3)no2)cs1 | inconclusive: 25.9 µM [inhibitor, single point] | –
COc1ccc(-n2c(=O)c(-c3ccccc3)nc3cnc(N4CCNCC4)nc32)cc1 | inactive | –
Nn1c(-c2ccccc2)cc(-c2ccccc2)cc1=O | inactive | –
CCOC(=O)c1cc(-c2ccccc2)nn1CC1CC(c2ccc(Cl)cc2)=NO1 (configuration not stated) | inconclusive: 14.6 µM [inhibitor, partial curve] | –
Cc1cc2ccccc2c(=O)n1CC(=O)Nc1ccc2c(c1)OCO2 | inconclusive: 14.6 µM [inhibitor, partial curve, poor fit] | –
CCOC(=O)C1C(=O)NC(c2ccccc2)=NC1c1ccc(Br)cc1 (configuration not stated) | inconclusive: 25.9 µM [inhibitor, single point] | –
Cc1ccc(S(=O)(=O)N2CCCN(c3nc4cc(C)ccc4cc3C#N)CC2)cc1 | inconclusive: 18.4 µM [inhibitor, single point] | –
CCN(CC)S(=O)(=O)c1ccc2c(c1)nc(SCC(=O)N1CCCCCC1)n2-c1ccc(OC)cc1 | active: 23.1 µM | –
O=[N+]([O-])c1cc(F)cc(F)c1Nc1ccc(F)cc1 | inactive | –
Cc1cc(C)c(CN2CCCC(CNC(=O)c3ccc(F)cc3)C2)c(-n2cccn2)c1 (configuration not stated) | inconclusive: 16.4 µM [inhibitor, partial curve] | –
CCOC(=O)[C@]12CCCC=C1N(Cc1ccc(Cl)cc1Cl)C(=O)[C@H](CC(=O)NCc1ccccc1)C2 | inconclusive: 23.1 µM [inhibitor, single point] | –
COC(=O)[C@H](Cc1ccccc1)N(Cc1ccc(C)cc1)S(C)(=O)=O | inconclusive: 25.1 µM [inhibitor, single point] | –
Cc1cc(C)nc(NNC2=CC(=[N+]3CCCCC3)CC(C)(C)C2)n1 | active: 14.6 µM | –
COC(=O)c1c(N2C(=O)CC(Sc3ccccc3C(=O)O)C2=O)sc2c1CCCC2 (configuration not stated) | active: 7.31 µM | –
Cc1cc(C)nc(N/N=C/C2=C(N3CCOCC3)C(=C\c3ccc(Cl)cc3)/CC2)n1 | active: 16.4 µM | –
CCc1ccc(NC(=S)Nc2ccc(S(=O)(=O)Nc3ncccn3)cc2)cc1 | inconclusive: 23.1 µM [inhibitor, single point] | –

From PubChem BioAssay AID686978 (National Center for Advancing Translational Sciences (NCATS), 2013)
